# Data published in the supplement of paper PMC12217912.
# The list shows a part of the results. The full chains were built here from the parent and the listed change. Inactive controls read about 0.05.
# B1: TEV protease; numbered along this chain (parent)
# chain: MGESLFKGPRDYNPISSSICHLTNESDGHTTSLYGIGFGPFIITNKHLFRRNNGTLVVQSLHGVFKVKDTTTLQQHLVDGRDMIIIRMPKDFPPFPQKLKFREPQREERICLVTTNFQTKSMSSMVSDTSCTFPSGDGIFWKHWIQTKDGQCGSPLVSTRDGFIVGIHSASNFTNTNNYFTSVPKNFMELLTNQEAQQWVSGWRLNADSVLWGGHKVFMVKPEEPFQPVKEATQL
# Variants of: B1
# Test: raw area under fraction-flipped curve 0-4 h after induction (AUC4h, not background-subtracted), DNA-recorder readout of cleavage of the substrate (dimensionless); higher = more cleavage of the substrate by the protease variant
# Settings: temperature: 34 °C; time window: 0-4 h after rhamnose induction
# Experimental: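 In vivo DNA recorder in E. coli TOP10(DE3) ΔrhaA at 34 °C. Each TEVp single-site mutant (parent TEVp 0) is paired with a single-site variant of the 7-mer TEVs (canonical ENLYFQ|S). The substrate sits between flexible linkers in a Bxb1-sfGFP-TEVs-SsrA fusion, so cleavage stabilises Bxb1 and speeds flipping of a recombination array, read by NGS. The value is the raw area under the fraction-flipped curve over 0-4 h after rhamnose induction (AUC4h), with ≥20 reads per time point. It is not background-subtracted; inactive controls average about 0.047.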
# 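Further: Bxb1 expression induced with 0.2% (w/v) L-rhamnose at OD600 near 0.5, cultures sampled hourly, flipped fraction per protease–substrate barcode pair counted by paired-end Illumina sequencing.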
Variant,area with substrate ENLYFQA,area with substrate ENLYFQC,area with substrate ENLYFQD,area with substrate ENLYFQE,area with substrate ENLYFQG,area with substrate ENLYFQH,area with substrate ENLYFQI,area with substrate ENLYFQL,area with substrate ENLYFQM,area with substrate ENLYFQP,area with substrate ENLYFQQ,area with substrate ENLYFQR,area with substrate ENLYFQS,area with substrate ENLYFQT,area with substrate ENLYFQV,area with substrate ENLYFQW,area with substrate ENLYFQF,area with substrate ENLYFQK,area with substrate ENLYFQN,area with substrate ENLYFQY
MGESLFKGPRDYNPISSSICHLTNWSDGHTTSLYGIGFGPFIITNKHLFRRNNGTLVVQSLHGVFKVKDTTTLQQHLVDGRDMIIIRMPKDFPPFPQKLKFREPQREERICLVTTNFQTKSMSSMVSDTSCTFPSGDGIFWKHWIQTKDGQCGSPLVSTRDGFIVGIHSASNFTNTNNYFTSVPKNFMELLTNQEAQQWVSGWRLNADSVLWGGHKVFMVKPEEPFQPVKEATQL [E25W],0.136,0.141,0.0675,0.051,0.0888,0.0811,0.0548,0.0599,0.084,0.0474,0.077,0.0529,0.107,0.0613,0.0504,0.0816,–,–,–,–
MGESLFKGPRDYNPISSSICHLTNYSDGHTTSLYGIGFGPFIITNKHLFRRNNGTLVVQSLHGVFKVKDTTTLQQHLVDGRDMIIIRMPKDFPPFPQKLKFREPQREERICLVTTNFQTKSMSSMVSDTSCTFPSGDGIFWKHWIQTKDGQCGSPLVSTRDGFIVGIHSASNFTNTNNYFTSVPKNFMELLTNQEAQQWVSGWRLNADSVLWGGHKVFMVKPEEPFQPVKEATQL [E25Y],0.0807,0.108,0.0885,–,0.169,–,0.0668,0.0612,0.0912,0.0524,–,0.061,0.104,0.0729,–,0.0614,0.0679,0.0558,0.071,0.0781
MGESLFKGPRDYNPISSSICHLTNNSDGHTTSLYGIGFGPFIITNKHLFRRNNGTLVVQSLHGVFKVKDTTTLQQHLVDGRDMIIIRMPKDFPPFPQKLKFREPQREERICLVTTNFQTKSMSSMVSDTSCTFPSGDGIFWKHWIQTKDGQCGSPLVSTRDGFIVGIHSASNFTNTNNYFTSVPKNFMELLTNQEAQQWVSGWRLNADSVLWGGHKVFMVKPEEPFQPVKEATQL [E25N],0.108,0.119,0.0604,0.062,0.11,–,0.0602,0.0643,0.0925,–,0.0753,0.0658,0.104,0.0652,–,0.0707,–,0.0672,0.0592,0.0922
MGESLFKGPRDYNPISSSICHLTNESDGHLTSLYGIGFGPFIITNKHLFRRNNGTLVVQSLHGVFKVKDTTTLQQHLVDGRDMIIIRMPKDFPPFPQKLKFREPQREERICLVTTNFQTKSMSSMVSDTSCTFPSGDGIFWKHWIQTKDGQCGSPLVSTRDGFIVGIHSASNFTNTNNYFTSVPKNFMELLTNQEAQQWVSGWRLNADSVLWGGHKVFMVKPEEPFQPVKEATQL [T30L],0.0931,0.107,0.0893,–,0.0906,0.104,0.0631,–,0.0993,0.0577,–,0.0659,0.103,0.0644,0.0574,0.0654,0.0783,–,0.0733,–
MGESLFKGPRDYNPISSSICHLTNESDGHYTSLYGIGFGPFIITNKHLFRRNNGTLVVQSLHGVFKVKDTTTLQQHLVDGRDMIIIRMPKDFPPFPQKLKFREPQREERICLVTTNFQTKSMSSMVSDTSCTFPSGDGIFWKHWIQTKDGQCGSPLVSTRDGFIVGIHSASNFTNTNNYFTSVPKNFMELLTNQEAQQWVSGWRLNADSVLWGGHKVFMVKPEEPFQPVKEATQL [T30Y],0.0992,–,0.0786,–,0.0897,0.0863,0.0598,0.0648,0.0846,–,0.0911,0.0611,0.102,0.0672,0.0579,0.0665,–,0.0609,0.0823,0.0846
MGESLFKGPRDYNPISSSICHLTNEWDGHTTSLYGIGFGPFIITNKHLFRRNNGTLVVQSLHGVFKVKDTTTLQQHLVDGRDMIIIRMPKDFPPFPQKLKFREPQREERICLVTTNFQTKSMSSMVSDTSCTFPSGDGIFWKHWIQTKDGQCGSPLVSTRDGFIVGIHSASNFTNTNNYFTSVPKNFMELLTNQEAQQWVSGWRLNADSVLWGGHKVFMVKPEEPFQPVKEATQL [S26W],0.0825,0.082,0.0444,–,0.0585,0.0717,0.0593,0.0594,0.0721,–,0.0515,0.0626,0.0791,0.0621,0.0681,–,–,–,0.0201,–
MGESLFKGPRDYNPISSSICHLTNEHDGHTTSLYGIGFGPFIITNKHLFRRNNGTLVVQSLHGVFKVKDTTTLQQHLVDGRDMIIIRMPKDFPPFPQKLKFREPQREERICLVTTNFQTKSMSSMVSDTSCTFPSGDGIFWKHWIQTKDGQCGSPLVSTRDGFIVGIHSASNFTNTNNYFTSVPKNFMELLTNQEAQQWVSGWRLNADSVLWGGHKVFMVKPEEPFQPVKEATQL [S26H],0.0751,0.0681,–,–,–,0.0755,0.0522,0.0567,0.0695,0.0545,–,0.0656,0.0755,–,–,0.0404,–,–,–,0.0917
MGESLFKGPRDYNPISSSICHLTNESDIHTTSLYGIGFGPFIITNKHLFRRNNGTLVVQSLHGVFKVKDTTTLQQHLVDGRDMIIIRMPKDFPPFPQKLKFREPQREERICLVTTNFQTKSMSSMVSDTSCTFPSGDGIFWKHWIQTKDGQCGSPLVSTRDGFIVGIHSASNFTNTNNYFTSVPKNFMELLTNQEAQQWVSGWRLNADSVLWGGHKVFMVKPEEPFQPVKEATQL [G28I],0.0729,0.0852,0.0572,–,0.0767,0.0565,0.0708,0.0556,0.0887,–,0.0737,0.0583,0.073,0.0577,0.0532,0.0704,0.0635,0.0586,0.0621,0.0778
MGESLFKGPRDYNPISSSICHLTNESDDHTTSLYGIGFGPFIITNKHLFRRNNGTLVVQSLHGVFKVKDTTTLQQHLVDGRDMIIIRMPKDFPPFPQKLKFREPQREERICLVTTNFQTKSMSSMVSDTSCTFPSGDGIFWKHWIQTKDGQCGSPLVSTRDGFIVGIHSASNFTNTNNYFTSVPKNFMELLTNQEAQQWVSGWRLNADSVLWGGHKVFMVKPEEPFQPVKEATQL [G28D],0.102,0.123,0.0647,0.0679,0.0846,0.0697,0.053,0.0558,0.0889,–,0.0736,0.0645,0.0993,0.0555,0.0556,0.071,0.0639,0.0712,0.0783,0.0778
